# Experimental data taken from the supplement of paper PMC8728848.
# Some of the results follow.
# B1: Si Bti9 1b-HA (Solanum lycopersicum) (protein)
# chain: MFESRPRSVLSLGVFVILVYLSSVPLPVNSQCNRGCDLALASFYVWRGSNLTLISEMFSTSIADIVSYNNRDNIPNQDSVIAGTRINIPFRCDCLNDGEVLGHAFPYRVKSGDTYDLVARNYSDLTTAQWMMKFNSYPENNIPNTVNLSVVVNCSCGNSDVSKDFGLFVTYPVRAEDNLTSVASAANVSEDIIRRYNPAAVSILDIGQGIIYIPGRDRNGNFPPLPTSTDGLSGGAKAPLFFNPAFLYKVVELKLAGRSRTSGYPYDVPDYAGYPYDVPDYALEVLFQ
# What was measured:
# Assay in all cases: glycan array binding signal (z-score within array); higher = stronger binding
# Settings in all cases: glycan notation: IUPAC condensed, linker removed
# [1] = molecular target: Neu5Ac(a2-6)Gal(b1-4)GlcNAc(b1-2)Man(a1-3)[Man(a1-6)]Man(b1-4)GlcNAc(b1-4)GlcNAc
# Method in brief: (§1)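 Arrays were curated from the Consortium for Functional Glycomics database, 3228 in total, and kept only where the protein sequence was available. Binding is expressed as a within-array Z-score. This score was averaged across arrays of the same protein sequence at different concentrations or buffers and across linkers, and negative values can be read as non-binding.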
# [2] = molecular target: Neu5Ac(a2-6)Gal(b1-4)GlcNAc(b1-2)Man(a1-3)[Neu5Ac(a2-3)Gal(b1-4)GlcNAc(b1-2)Man(a1-6)]Man(b1-4)GlcNAc(b1-4)GlcNAc
# Method in brief: as §1
# [3] = molecular target: Neu5Ac(a2-6)Gal(b1-4)GlcNAc(b1-2)Man(a1-3)[Neu5Ac(a2-6)Gal(b1-4)GlcNAc(b1-2)Man(a1-6)]Man(b1-4)GlcNAc(b1-4)GlcNAc
# Method in brief: as §1
# [4] = molecular target: Neu5Ac(a2-6)Gal(b1-4)GlcNAc(b1-2)Man(a1-3)[Neu5Ac(a2-6)Gal(b1-4)GlcNAc(b1-2)Man(a1-6)]Man(b1-4)GlcNAc(b1-4)[Fuc(a1-6)]GlcNAc
# Method in brief: as §1
# [5] = molecular target: Neu5Ac(a2-6)Gal(b1-4)GlcNAc(b1-2)Man(a1-6)Man(b1-4)GlcNAc(b1-4)GlcNAc
# Method in brief: as §1
# [6] = molecular target: Neu5Ac(a2-6)Gal(b1-4)GlcNAc(b1-2)Man(a1-6)[Gal(b1-4)GlcNAc(b1-2)Man(a1-3)]Man(b1-4)GlcNAc(b1-4)GlcNAc
# Method in brief: as §1
# [7] = molecular target: Neu5Ac(a2-6)Gal(b1-4)GlcNAc(b1-2)Man(a1-6)[GlcNAc(b1-2)Man(a1-3)]Man(b1-4)GlcNAc(b1-4)GlcNAc
# Method in brief: as §1
# [8] = molecular target: Neu5Ac(a2-6)Gal(b1-4)GlcNAc(b1-2)Man(a1-6)[Man(a1-3)]Man(b1-4)GlcNAc(b1-4)GlcNAc
# Method in brief: as §1
# [9] = molecular target: Neu5Ac(a2-6)Gal(b1-4)GlcNAc(b1-2)[Neu5Ac(a2-6)Gal(b1-4)GlcNAc(b1-4)]Man(a1-3)[GlcNAc(b1-4)][Neu5Ac(a2-6)Gal(b1-4)GlcNAc(b1-2)[Neu5Ac(a2-6)Gal(b1-4)GlcNAc(b1-6)]Man(a1-6)]Man(b1-4)GlcNAc(b1-4)GlcNAc
# Method in brief: as §1
# [10] = molecular target: Neu5Ac(a2-6)Gal(b1-4)GlcNAc(b1-2)[Neu5Ac(a2-6)Gal(b1-4)GlcNAc(b1-4)]Man(a1-3)[GlcNAc(b1-4)][Neu5Ac(a2-6)Gal(b1-4)GlcNAc(b1-4)Man(a1-6)]Man(b1-4)GlcNAc(b1-4)GlcNAc
# Method in brief: as §1
# [11] = molecular target: Neu5Ac(a2-6)Gal(b1-4)GlcNAc(b1-2)[Neu5Ac(a2-6)Gal(b1-4)GlcNAc(b1-6)]Man(a1-6)[Neu5Ac(a2-6)Gal(b1-4)GlcNAc(b1-2)Man(a1-3)][GlcNAc(b1-4)]Man(b1-4)GlcNAc(b1-4)GlcNAc
# Method in brief: as §1
# [12] = molecular target: Neu5Ac(a2-6)Gal(b1-4)GlcNAc(b1-3)Gal(b1-3)GlcNAc
# Method in brief: as §1
# [13] = molecular target: Neu5Ac(a2-6)Gal(b1-4)GlcNAc(b1-3)Gal(b1-4)GlcNAc
# Method in brief: as §1
# [14] = molecular target: Neu5Ac(a2-6)Gal(b1-4)GlcNAc(b1-3)Gal(b1-4)GlcNAc(b1-2)Man(a1-3)[Neu5Ac(a2-6)Gal(b1-4)GlcNAc(b1-3)Gal(b1-4)GlcNAc(b1-2)Man(a1-6)]GalNAc
# Method in brief: as §1
# [15] = molecular target: Neu5Ac(a2-6)Gal(b1-4)GlcNAc(b1-3)Gal(b1-4)GlcNAc(b1-3)Gal(b1-4)GlcNAc
# Method in brief: as §1
# [16] = molecular target: Neu5Ac(a2-6)Gal(b1-4)GlcNAc(b1-3)Gal(b1-4)GlcNAc(b1-3)Gal(b1-4)GlcNAc(b1-2)Man(a1-3)[Neu5Ac(a2-6)Gal(b1-4)GlcNAc(b1-3)Gal(b1-4)GlcNAc(b1-3)Gal(b1-4)GlcNAc(b1-2)Man(a1-6)]GalNAc
# Method in brief: as §1
# [17] = molecular target: Neu5Ac(a2-6)Gal(b1-4)GlcNAc(b1-3)Gal(b1-4)GlcNAc(b1-3)GalNAc
# Method in brief: as §1
# [18] = molecular target: Neu5Ac(a2-6)Gal(b1-4)GlcNAc(b1-3)Gal(b1-4)GlcNAc(b1-3)[Neu5Ac(a2-6)Gal(b1-4)GlcNAc(b1-3)Gal(b1-4)GlcNAc(b1-6)]GalNAc
# Method in brief: as §1
# [19] = molecular target: Neu5Ac(a2-6)Gal(b1-4)GlcNAc(b1-3)Gal(b1-4)GlcNAc(b1-6)[Gal(b1-3)]GalNAc
# Method in brief: as §1
# [20] = molecular target: Neu5Ac(a2-6)Gal(b1-4)GlcNAc(b1-3)Gal(b1-4)[Fuc(a1-3)]GlcNAc(b1-3)Gal(b1-4)[Fuc(a1-3)]GlcNAc
# Method in brief: as §1
# [21] = molecular target: Neu5Ac(a2-6)Gal(b1-4)GlcNAc(b1-3)GalNAc
# Method in brief: as §1
# [22] = molecular target: Neu5Ac(a2-6)Gal(b1-4)GlcNAc(b1-3)[Neu5Ac(a2-6)Gal(b1-4)GlcNAc(b1-6)]GalNAc
# Method in brief: as §1
# [23] = molecular target: Neu5Ac(a2-6)Gal(b1-4)GlcNAc(b1-6)GalNAc
# Method in brief: as §1
# [24] = molecular target: Neu5Ac(a2-6)Gal(b1-4)GlcNAc(b1-6)[Gal(b1-3)GlcNAc(b1-3)]Gal(b1-4)Glc
# Method in brief: as §1
# [25] = molecular target: Neu5Ac(a2-6)Gal(b1-4)GlcNAc(b1-6)[Gal(b1-3)]GalNAc
# Method in brief: as §1
# [26] = molecular target: Neu5Ac(a2-6)Gal(b1-4)GlcNAc6S
# Method in brief: as §1
# [27] = molecular target: Neu5Ac(a2-6)GalNAc
# Method in brief: as §1
# [28] = molecular target: Neu5Ac(a2-6)GalNAc(b1-4)GlcNAc
# Method in brief: as §1
# [29] = molecular target: Neu5Ac(a2-6)GalNAc(b1-4)GlcNAc6S
# Method in brief: as §1
# [30] = molecular target: Neu5Ac(a2-6)GlcNAc(b1-4)GlcNAc
# Method in brief: as §1
# [31] = molecular target: Neu5Ac(a2-6)GlcNAc(b1-4)GlcNAc(b1-4)GlcNAc
# Method in brief: as §1
binder,measurement,setting,value
B1,glycan array binding signal (z-score),[1],-0.349
same,glycan array binding signal (z-score),[2],-0.131
same,glycan array binding signal (z-score),[3],-0.244
same,glycan array binding signal (z-score),[4],-0.398
same,glycan array binding signal (z-score),[5],-0.388
same,glycan array binding signal (z-score),[6],-0.493
same,glycan array binding signal (z-score),[7],0.093
same,glycan array binding signal (z-score),[8],-0.33
same,glycan array binding signal (z-score),[9],-0.171
same,glycan array binding signal (z-score),[10],-0.262
same,glycan array binding signal (z-score),[11],-0.289
same,glycan array binding signal (z-score),[12],-0.167
same,glycan array binding signal (z-score),[13],-0.295
same,glycan array binding signal (z-score),[14],0.677
same,glycan array binding signal (z-score),[15],-0.187
same,glycan array binding signal (z-score),[16],2.19
same,glycan array binding signal (z-score),[17],-0.106
same,glycan array binding signal (z-score),[18],-0.228
same,glycan array binding signal (z-score),[19],-0.12
same,glycan array binding signal (z-score),[20],-0.437
same,glycan array binding signal (z-score),[21],0.739
same,glycan array binding signal (z-score),[22],-0.425
same,glycan array binding signal (z-score),[23],0.381
same,glycan array binding signal (z-score),[24],0.158
same,glycan array binding signal (z-score),[25],-0.186
same,glycan array binding signal (z-score),[26],-0.22
same,glycan array binding signal (z-score),[27],-0.245
same,glycan array binding signal (z-score),[28],-0.555
same,glycan array binding signal (z-score),[29],0.009
same,glycan array binding signal (z-score),[30],-0.447
same,glycan array binding signal (z-score),[31],-0.401
